These results are taken from patent publication US7618986B2, “Method of treating latent tuberculosis” (priority 2006, dated 2009).

The subject of the experiment is dormant H37Rv-CA-luxAB strain. Description: microbe, parasite or virus in culture. As to conditions: Mycobacterium tuberculosis.

Several values for one entry are separate records, joined by “and”; a condition that tells them apart may be missing. Equal entries are not always repeated. Structures can show the parent of a compound that is named as a salt. Where two headings read alike, the source gives them in different places.

As to `O=[N+]([O-])c1nccn1CCCNc1ccnc2cc(Cl)ccc12` [NLCQ-1, 4-[3-(2-Nitro-1-imidazolyl)-propylamino]-7-chloroquinoline hydrochloride], the MBC was 50 µM and 18.4 µg/mL (read-out: MBC, CFU); 25 µM and 9.2 µg/mL (read-out: MBC, Luciferase).

`O=[N+]([O-])c1nccn1CCCCNc1ccnc2cc(Cl)ccc12` [NLCQ-2, 4-[4-(2-nitro-1-imidazolyl)-butylamino]-7-chloroquinoline hydrochloride]: the MBC (read-out: MBC, CFU) is 25 µM and 9.8 µg/mL; the MBC (read-out: MBC, Luciferase) was 12.5 µM and 4.9 µg/mL.

For the compound `O=[N+]([O-])c1cn2c(n1)OC[C@@H](OCc1ccc(OC(F)(F)F)cc1)C2` [PA-824], the MBC runs as follows: (read-out: MBC, CFU) 35.6 µM and 12.8 µg/mL; (read-out: MBC, Luciferase) 17.8 µM and 6.4 µg/mL.

As to `CO[C@H]1/C=C/O[C@@]2(C)Oc3c(C)c(O)c4c(O)c(c(/C=N/N5CCN(C)CC5)c(O)c4c3C2=O)NC(=O)/C(C)=C\C=C\[C@H](C)[C@H](O)[C@@H](C)[C@@H](O)[C@@H](C)[C@H](OC(C)=O)[C@@H]1C` [Rifampin, rifampin], the MBC was 4.86 µM and 4 µg/mL (read-out: MBC, CFU); 4.86 µM and 4 µg/mL (read-out: MBC, Luciferase).
